# Source: PMC4336329 (PLoS ONE, 2015)
# Among all 310,000 compounds or so, about 14,000 (4.5%) showed an effect of 50% or more. The effect is printed as a negative number. The list shows a part of the results.
# Biological target: human ether-à-go-go-related gene (hERG) potassium channel (human, UniProt Q12809)
# Test: primary screen, population patch clamp on CHO cells stably expressing hERG
# 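Further: peak tail current of the secondary pulse compared with the same well before compound.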
# Chain of human ether-à-go-go-related gene (hERG) potassium channel (Q12809 whole entry, looked up): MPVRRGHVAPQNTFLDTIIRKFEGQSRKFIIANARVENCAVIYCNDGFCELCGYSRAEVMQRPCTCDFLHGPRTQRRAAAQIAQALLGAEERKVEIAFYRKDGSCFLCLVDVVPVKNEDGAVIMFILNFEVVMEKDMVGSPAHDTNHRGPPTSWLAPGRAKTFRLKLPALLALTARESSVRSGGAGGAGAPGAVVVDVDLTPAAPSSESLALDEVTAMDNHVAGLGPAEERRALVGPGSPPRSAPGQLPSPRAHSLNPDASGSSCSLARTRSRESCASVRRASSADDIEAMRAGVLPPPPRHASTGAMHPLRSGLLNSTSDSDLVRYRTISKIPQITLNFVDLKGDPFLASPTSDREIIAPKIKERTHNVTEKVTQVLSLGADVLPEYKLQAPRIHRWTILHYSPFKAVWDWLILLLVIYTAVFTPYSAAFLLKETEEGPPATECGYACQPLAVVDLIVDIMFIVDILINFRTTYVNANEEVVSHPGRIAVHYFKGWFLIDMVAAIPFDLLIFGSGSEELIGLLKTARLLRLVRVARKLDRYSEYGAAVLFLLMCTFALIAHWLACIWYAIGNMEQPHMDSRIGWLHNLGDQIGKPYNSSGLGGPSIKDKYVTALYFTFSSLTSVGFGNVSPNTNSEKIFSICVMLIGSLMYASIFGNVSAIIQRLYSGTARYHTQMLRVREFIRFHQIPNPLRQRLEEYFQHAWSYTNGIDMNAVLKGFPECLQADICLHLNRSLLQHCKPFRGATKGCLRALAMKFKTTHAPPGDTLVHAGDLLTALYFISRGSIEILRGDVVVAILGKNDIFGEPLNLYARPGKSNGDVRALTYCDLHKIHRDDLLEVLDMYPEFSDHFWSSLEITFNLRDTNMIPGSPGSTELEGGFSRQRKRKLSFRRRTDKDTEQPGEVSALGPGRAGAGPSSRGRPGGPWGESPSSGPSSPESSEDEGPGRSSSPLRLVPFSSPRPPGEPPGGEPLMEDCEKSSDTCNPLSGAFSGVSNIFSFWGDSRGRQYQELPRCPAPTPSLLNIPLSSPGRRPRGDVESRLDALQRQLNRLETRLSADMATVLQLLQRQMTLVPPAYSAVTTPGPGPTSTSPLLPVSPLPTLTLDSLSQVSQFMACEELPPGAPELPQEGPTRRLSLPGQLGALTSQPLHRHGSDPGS
row,Structure (SMILES),"hERG current change (%, negative = inhibition) at 10uM [%]"
1,C=CCSc1nc(C)cc(C(=O)OCC)c1C#N,-28.4
2,Cc1cccc(N(CC(=O)NC2CCCC2)C(=O)c2nsc(Cl)c2Cl)c1C,2.47
3,O=C1C2C(C(=O)N1Cc1ccco1)C1C=CC2C12CC2 (centres unmarked),5.33
4,CC(C)(C)c1ccc(OCCC(=O)Nc2cccc(S(=O)(=O)N3CCOCC3)c2)cc1,-5.84
5,CCOC(=O)CN(C(=O)CSc1nnc2c(n1)[nH]c1ccccc12)c1ccccc1,-5.55
6,Cc1c(NC(=O)C2CCCN2C(=O)c2cccs2)c(=O)n(-c2ccccc2)n1C (centres unmarked),14.2
7,CN(Cc1cnc2nc(N)nc(N)c2n1)c1ccc(C(=O)N[C@@H](CCC(=O)O)C(=O)O)cc1.O,16.5
8,CCN(C(=O)c1cccc(S(=O)(=O)N(C)C)c1)C12CC3CC(CC(C3)C1)C2,14.3
9,COc1ccc2nc(NC(=O)c3ccccc3C(=O)O)sc2c1,29.6
10,Cc1cc(C(=O)OCC(=O)Nc2c(F)cccc2F)c(C)n1-c1ccccc1,8.99
11,CC(=O)C1=C(c2ccccc2)NC(=O)NC1c1ccc(O)c(Cl)c1 (centres unmarked),17.6
12,C1COCCO1.Nc1c(C(=O)O)sc2nc(-c3ccccc3)cc(-c3ccccc3)c12,12.3
13,O=C(NC1CC1)c1cc2c(s1)CS(=O)(=O)C2,10.2
14,COc1ccc(C2(C)NC(=O)N(CC(=O)c3ccc4c(c3)OCO4)C2=O)cc1 (centres unmarked),16.8
15,Cc1cc(C)c(S(=O)(=O)Nc2ccc(-c3cn4ccccc4n3)cc2)c(C)c1,11
16,COC(=O)c1ccc(C2OCC(C)(C)CO2)cc1,5.97
17,COC(=O)c1c(N=CN(C)C)c(C#N)c2n1CCCC2,-4.02
18,COc1cc(C(C)=O)ccc1OCC(O)CN(CCO)Cc1ccccc1 (centres unmarked),-4.21
19,COC(=O)c1c(C)n(Cc2ccccc2)c2ccc(O)cc12,14.8
20,Brc1c(-c2ccc3c(c2)OCO3)nc2ncccn12,4.69
21,COc1ccc(NC(=O)COC(C)=O)cc1Cl,11.9
22,CS(=O)(=O)N1CCCC(C(=O)Nc2c(F)cccc2F)C1 (centres unmarked),21.3
23,Cc1cc(C(C)(C)C)oc1C(=O)N(CC(=O)NC1CCCC1)Cc1ccccc1Cl,-3.47

row,Structure (SMILES),"hERG current change (%, negative = inhibition) at 10uM [%]"
1,O=C1NC(c2cccnc2)Nc2sc3c(c21)CCCC3 (centres unmarked),8.93
2,O=C(Cn1cnc2sc(-c3ccccc3)cc2c1=O)NCCc1ccccc1,0.983
3,N#Cc1c(-c2cccs2)cc(-c2cccnc2)nc1N,-5.78
4,O=C(CCS(=O)(=O)c1cc2c(cc1Cl)NC(=O)CO2)NCc1ccccc1,-16.1
5,CNc1nc(-c2ccccc2)cc(C)c1S(C)(=O)=O,-14.5
6,COCC(C)n1c(C)cc(C(=O)COc2ccc(C)nc2[N+](=O)[O-])c1C (centres unmarked),13.8
7,O=C(CSc1ncn[nH]1)N1CCN(c2nnc(-c3ccccc3)c3ccccc23)CC1,-0.967
8,COc1ccc(-c2oc3ncn(Cc4ccco4)c(=N)c3c2-c2ccc(OC)cc2)cc1,-49.4
9,Clc1cccc(CSc2nnc(-c3c[nH]c4ccccc34)o2)c1,11.9
10,CC(=O)Nc1ccc(NC(=O)C(C)Oc2ccccc2F)cc1 (centres unmarked),7.21
11,CCN(CC)CCNc1nc(-n2nc(C)cc2C)nc2sc3c(c12)CC(C)(C)OC3,-55.4
12,Cc1cc(Cl)cc(Cl)c1OCCN1CCCC1,-55
13,Nn1c(SCC(=O)Nc2ccccc2)nnc(Cc2ccccc2)c1=O,-1.24
14,Cc1ccc(C(=O)Nc2nnn(C)n2)cc1,8.71
15,Cc1ccc(NS(=O)(=O)c2ccc3c(c2)NC(=O)CO3)cc1Cl,14.6
16,O=C(/C=N/NC(=O)c1ccc(Cl)cc1Cl)c1ccccc1,2.34
17,Cc1ccc(NC(=S)N(CCCN2CCOCC2)Cc2ccco2)cc1Cl,-36.6
18,COc1ccc(C(C)NC(=O)Cc2cccs2)cc1OC (centres unmarked),11.4
19,CC(NCc1ccccc1OC1CCCC1)c1ccccc1.Cl (centres unmarked),-22.1
20,CC(C)Oc1ccc(/C=N/NC(=O)c2ccc(N(Cc3ccccc3)S(C)(=O)=O)cc2)cc1,-4.94
21,CC(=O)OC1CC(n2ccc(NC(=O)c3ccccc3)nc2=O)OC1CO (centres unmarked),7.24
22,COc1ccc(C2NCCC3(O)CCCCC23)c(OC)c1OC (centres unmarked),-2.23
23,COc1ccc(CCNC(=O)c2cc3c(C)nccc3[nH]c2=O)cc1OC,-22.6

row,Structure (SMILES),"hERG current change (%, negative = inhibition) at 10uM [%]"
1,Cc1[nH]c2ccccc2c1SCc1nnc(SCc2ccc(Cl)cc2)n1C,-0.801
2,COc1cc(CCC(O)CC(=O)CCc2ccccc2)ccc1O (centres unmarked),-17.3
3,COc1ccc(/C=C(/C#N)C(=O)Nc2cccc([N+](=O)[O-])c2)cc1C(=O)O,23.8
4,Cc1nnc(N2C(=O)C(=O)/C(=C(\O)c3ccc4c(c3)CC(C)O4)C2c2ccccc2)s1 (centres unmarked),20.9
5,N#CCSc1ncnc2ccccc12,13.3
6,COc1ccccc1NS(=O)(=O)c1cc(C)ccc1C,4.55
7,Cc1ccc(NC(=O)[C@@H]2CCC(=O)N2C2OC(=O)c3ccccc32)cc1Cl (some centres unmarked),-3.84
8,CC(=O)c1noc(C)c1C(=O)Nc1nccs1,11.3
9,CCOc1cc(C(=O)OCc2ccc(C(=O)OC)o2)cc(Br)c1OC,2.79
10,Cc1ccc(SCC(=O)NC(=O)NCCC(C)C)c(C)c1,-1.09
11,Cc1c(C(=O)Nc2ccc(Cc3ccncc3)cc2)cccc1[N+](=O)[O-],2.56
12,CC(=O)NC(CCS(C)(=O)=O)C(=O)Nc1ccc(F)cc1Cl (centres unmarked),17.5
13,CCOC(=O)c1c(C)[nH]c(C)c1S(=O)(=O)NC(CC)CN1CCOCC1 (centres unmarked),7.32
14,S=C(NCc1ccccn1)Nc1ccc(Cl)cc1Cl,6.07
15,CCNc1nc(NCC)nc(N/N=C/c2ccc([N+](=O)[O-])o2)n1,-50.8
16,O=C(CCNC(=O)C1CCN(S(=O)(=O)c2ccccc2)CC1)NCc1ccccc1Cl,-8.17
17,Cc1ccc(C)c(NC(=O)CSc2nnc(-c3ccccc3C)o2)c1,-7.24
18,Cc1c(C)c(C)c(CN2CCCC2)c(C)c1C,0.935
19,COc1ccc(-c2cc(C(=O)Nc3c(C)n(C)n(-c4ccccc4)c3=O)c3ccccc3n2)cc1,29.5
20,Fc1ccc(N/N=C2/CC(c3ccccc3)Oc3ccccc32)c(F)c1 (centres unmarked),10.4
21,Cc1cc(/C=C2\SC(=S)NC2=O)c(C)n1C1CC1,21
22,CCOC(=O)c1nn(-c2ccc(F)cc2)cc1O,7.23
23,COc1ccccc1C1CC(c2ccc(C)cc2)Nc2ncnn21 (centres unmarked),-4.63

row,Structure (SMILES),"hERG current change (%, negative = inhibition) at 10uM [%]"
1,O=C(COc1ccc(Br)cc1)NNC(=O)c1ccc(-n2cncn2)c([N+](=O)[O-])c1,-61
2,CSc1cccc(NC(=O)c2ccccn2)c1,7.57
3,COc1ccc(N(C(=O)c2snc(C(N)=O)c2N)C(C(=O)NCc2ccc(F)cc2)c2ccc(C)o2)c(OC)c1 (centres unmarked),-0.656
4,O=C(c1ccccc1)C1C(c2ccccc2)C1[N+](=O)[O-] (centres unmarked),-9.9
5,COc1cccc(C(=O)COC(=O)CCC(=O)c2ccccc2)c1,-0.55
6,CC(=O)c1ccc(S(=O)c2ccccc2)cc1 (centres unmarked),-3.38
7,COc1ccc(NC(=O)C(c2ccc(Cl)cc2)C(C)C)cn1 (centres unmarked),-7.25
8,Cc1cc(C(=O)NCC(c2cccs2)N2CCOCC2)ccc1[N+](=O)[O-] (centres unmarked),4.02
9,CC(C)(C)c1cc2nc3c(c(=O)n2[nH]1)CN(Cc1ccccc1)C3=O,6.19
10,CCOC(=O)C1CCCN(C(=O)c2cn(-c3ccccc3)nc2-c2cccnc2)C1 (centres unmarked),-5.07
11,CCc1nc2ccccc2c(=O)n1NC(=O)c1c(O)c2ccccc2n(CC)c1=O,20.8
12,COc1cc(N2CCOCC2)ccc1/C=C1\C(=O)NC(=O)N(Cc2ccc3c(c2)OCO3)C1=O,16.5
13,CCOC(=O)CCCC(=O)N1CCOCCOCCOCC1,-1.38
14,CCc1ccc(CCC(=O)Nc2nccs2)o1,-1.14
15,O=c1c(=Nc2ccccc2O)c(=O)c2ccccc12,12.8
16,CN1C(=O)/C(=C/c2ccc(C(=O)Nc3ccc(O)cc3C(=O)O)cc2)SC1=S,15.1
17,COc1ccc(-c2ccc(CCC(=O)O)n2C(C)C)cc1,-4.43
18,O=C1CCN(Cc2cccnc2)CCN1[C@H](CO)Cc1ccccc1,1.21
19,COCCNC(=O)Cn1nc(-c2ccc(Cl)cc2)c2ccccc2c1=O,8.83
20,CC(CN1CCCCC1)OC(=O)c1ccco1.Cl (centres unmarked),16
